± gives the standard deviation of the averaged measurements. The list shows a part of the results.
System: PfAP2-LT AP2 domain (GST-tagged)
Experiment: gcPBM binding intensity (ln(normalized median fluorescence intensity)); higher = stronger DNA binding
Outline: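 For binding intensity, the highest Masliner-normalised natural-log median intensity across replicate spots of either probe orientation was taken. Protein bound to the array was stained with Alexa488 anti-GST antibody and scanned at 488 nm. The protein, GST-tagged P. falciparum DNA-binding domains from E. coli at about 25 μg on average, had been applied for 1 h to an Agilent 4 × 180k array of primer-extended double-stranded 36-bp intergenic genomic probes and negative controls.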

| Sequence | gcPBM binding intensity (ln) |
| --- | --- |
| AAAAAAAAAAAAAATTGTACCCAAATATTTTTGTAG [XGTACX_site8303] | 8.38 ± 0.49 |
| ATATATATATTTAAGGTGCGATTTTGTTATATTTAA | 8.76 ± 0.36 |
| TTTTTATTAGGACATGCATACAAAATTAAAAAAAAT [TGCATGCA_site258] | 8.54 ± 0.37 |
| GTATATAATTTATGTGCACACACTCCTATTTTTAGC [CACACA_site49] | 9.44 ± 0.38 |
| AATTATATTAATATATAATAAAATAGGATGTTATTT [XGTACX_negctrl_site309] | 8.44 ± 0.49 |
| TTATGTATATTATAAATTAATACATTTAAATTAATA [CACACA_negctrl_site34] | 8.04 ± 0.41 |
| TTATTAAAATATTAAAGTACAAAAAAAATAAATAAA [XGTACX_site6507] | 8.53 ± 0.45 |
| CTTATTTTATGTTATACACACAAAGAAAAAAAATAA [CACACA_site2165] | 8.62 ± 0.42 |
| AAAAATTAGAAACACACACACATATATATATATATT [CACACA_site1042] | 9.66 ± 0.42 |
| TCAAATGTATATAATTGTACTTATCCTTTTCATTTT [XGTACX_site4879] | 8.8 ± 0.49 |
| TTTTAAGTTTTTGAATGTACGTAATTTGTAAATTCT [XGTACX_site2448] | 8.49 ± 0.47 |
| TATAAAATACTGTATCGATGGGGGAGGGCGCAGGGG [TGCATGCA_negctrl_site250] | 10.4 ± 0.16 |
| AAAAAAAAAAAAAAAAAAAAAAAAAAAGATTATGAG [CACACA_negctrl_site1088] | 8.64 ± 0.23 |
| AAGAACAAACAAAATAGTACAATATATATATATATA [XGTACX_site4258] | 9.58 ± 0.41 |
| TTTAAATATTTTATAGCATGCTACCAATATGTATAT [TGCATGCA_site291] | 8.83 ± 0.52 |
| CATATATAGATATATACACACATATAGATTTTCTTT [CACACA_site6797] | 8.92 ± 0.38 |
| TATTCATAACAATGATGTACATATATTTTTTTTTTC [XGTACX_site5619] | 8.63 ± 0.42 |
| AACTATAATTAAAGGATGCACTTGAAGGCATTTCAA [GTGCAC_site9689] | 8.7 ± 0.48 |
| TTACTTGTTTATTTTTTTTTTTTTTTTTTTTTTGTT [TGCATGCA_negctrl_site103] | 8.41 ± 0.73 |

| Sequence | gcPBM binding intensity (ln) |
| --- | --- |
| TAATGGAGAAAATAATGTACTTAGATATTTGTTCTA [XGTACX_site6312] | 8.44 ± 0.42 |
| CAATGTATTTAGAATACATGCATATTTTCATAATGT [TGCATGCA_site221] | 8.6 ± 0.45 |
| AATTATGCACAAATCACACATATAAAATAAAAAGTG [CACACA_site4474] | 9.06 ± 0.37 |
| AAATATTTATATGTTACACACTGTTTATAATTTTCT [CACACA_site4868] | 8.86 ± 0.39 |
| ACAAAAATGAGATGGTGTACGCACAAATAAATAATA [XGTACX_site5221] | 9.31 ± 0.53 |
| ATATAGTTTCACATGTGTACATAAAAATACACTTGT [XGTACX_site3339] | 8.85 ± 0.4 |
| TTTAATTTATATAATGATATTAAGTTGGTTATTAGG [CACACA_negctrl_site329] | 8.45 ± 0.48 |
| CAAAATGTTAAAGATACACACCTAACAAACACAAAA [CACACA_site4685] | 9.19 ± 0.5 |
| AATTCTTTACTATTCACACATATAAATATTCACTTT [CACACA_site4886] | 8.85 ± 0.42 |
| AAATCCATATAGGATTGTACATATATTATATATATA [XGTACX_site8818] | 8.79 ± 0.39 |
| AAAAATATTTAAAATACACACATATCTATAATATAT [CACACA_site7032] | 8.8 ± 0.33 |
| GTGGTATAAATTTTATGTACTTAATAACTCATTAAT [XGTACX_site5555] | 8.73 ± 0.43 |
| ACATATATATTTATATGTACATATATTTATATATAT [XGTACX_site7469] | 8.93 ± 0.46 |
| TACTTACCTATAATAACACACAAGAAAAAAATAAAA [CACACA_site6616] | 8.82 ± 0.49 |
| AAATAATATCATAAATGTACATATATCATATTATTA [XGTACX_site5372] | 8.62 ± 0.36 |
| CATCCAAAAATATTATGTACTAAATTTGGATGTATT [XGTACX_site3954] | 8.7 ± 0.4 |
| TATAAAATTATGTGTACACAAATATAACTTTTCTTT [CACACA_site5554] | 8.71 ± 0.51 |
| AAAATATTTCTTCTTTGTACTTATATATATTTAATT [XGTACX_site5446] | 8.71 ± 0.38 |
| TATTCATATTCCAAGTGTACACATAAATCCCTAATA [XGTACX_site4131] | 8.63 ± 0.39 |

| Sequence | gcPBM binding intensity (ln) |
| --- | --- |
| TTAATAATTATAACATGTACATACACTAAATTTTTT [XGTACX_site8953] | 8.65 ± 0.51 |
| CAAATATATATTTATTGTACATATTGTTTATATGGT [XGTACX_site5246] | 8.87 ± 0.47 |
| AGAAATAATATTATTCAAGTATTTATTTAATTTTCA [GTGCAC_negctrl_site475] | 8.29 ± 0.46 |
| ATAATAACTTGTAAGGTGCATTTTATGTTTTCTTAA | 8.67 ± 0.45 |
| CTCATCCTTACATACACACACATATATTTATTTATA [CACACA_site6202] | 9.31 ± 0.35 |
| AAATTATAGAATCATTGTACTTTTTTTTTTTTTTTT [XGTACX_site1280] | 8.49 ± 0.52 |
| TATGCTTCAAAATTGTGTACATATATAATATATTAT [XGTACX_site6760] | 8.84 ± 0.4 |
| TTTTAAAACTACATTGGTACACAATAAAAAAAAAAA [XGTACX_site2793] | 8.47 ± 0.45 |
| TCATATATATTATACACACACATATATAAATATATA [CACACA_site967] | 9.18 ± 0.3 |
| AAAAAAAAAAAAAAAGCACACATATAAATATGAATA [CACACA_site8391] | 8.81 ± 0.53 |
| CCATGTCAAACATTTGCACACAAAAAAATAAAAATT [CACACA_site4546] | 9.12 ± 0.52 |
| TATATATATATATAATGTACAAACTCCTTTATATAT [XGTACX_site4545] | 9.05 ± 0.2 |
| AGGTTGAATATATATTTGTGATTATATTATTTTATT [CACACA_negctrl_site778] | 8.77 ± 0.34 |
| TCATTCAAAAAAAATCAACACACAGTTACATAGCTC [CACACA_site8700] | 8.93 ± 0.3 |
| GTTTTTTTTATATATTGTACAAATAATATATTATAT [XGTACX_site29] | 8.89 ± 0.4 |
| TTATTTAAACAAATCACACACAAATATAAATACATA [CACACA_site5158] | 9.11 ± 0.39 |
| AACACCAAACTAAATGTACACACATACATAAATATA [CACACA_site8298] | 9.34 ± 0.46 |
| AATATAAACACAAACACACACATATATATATATATA [CACACA_site4307] | 10 ± 0.28 |
| TAAAATTATGTAATAACACACATATACAATACATAT [CACACA_site1236] | 9 ± 0.38 |
